The target of one assay is T1, MBP-AGB1 (Arabidopsis) (UniProt P49177).
T1 sequence: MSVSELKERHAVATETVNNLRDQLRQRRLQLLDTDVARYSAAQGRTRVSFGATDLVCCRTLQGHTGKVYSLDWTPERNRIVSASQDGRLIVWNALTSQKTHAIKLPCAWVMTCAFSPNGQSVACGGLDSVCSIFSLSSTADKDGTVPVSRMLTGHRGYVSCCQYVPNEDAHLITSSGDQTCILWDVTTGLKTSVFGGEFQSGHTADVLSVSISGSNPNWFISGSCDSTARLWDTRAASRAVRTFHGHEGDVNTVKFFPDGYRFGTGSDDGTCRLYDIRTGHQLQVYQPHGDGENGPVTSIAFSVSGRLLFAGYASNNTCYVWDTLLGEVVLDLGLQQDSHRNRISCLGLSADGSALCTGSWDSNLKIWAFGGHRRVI
Nature of the assay: pull-down; His-tagged ZAR1 intracellular domain co-incubated with GST-CaM1 and MBP-AGB1 together; pulled down by GST-CaM1 or by MBP-AGB1.

Another assay concerns the target T2, EGFP-LTi6b (UniProt Q9ZNS6).
T2 sequence: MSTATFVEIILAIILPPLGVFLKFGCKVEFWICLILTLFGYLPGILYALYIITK
Put plainly: co-IP; total protein extract of FLAG-ZAR1 or EGFP-LTi6b (control) transgenic plants (inflorescences and siliques 1-2 DAP, or seedlings 10 DAG); anti-FLAG-M2 gel, 30 min; blots with anti-AGB1 and anti-CaM antibodies.

In assay [1] the target is T3, FLAG-ZAR1 (transgenic plants) (Arabidopsis) (UniProt Q9ZU46).
T3 sequence: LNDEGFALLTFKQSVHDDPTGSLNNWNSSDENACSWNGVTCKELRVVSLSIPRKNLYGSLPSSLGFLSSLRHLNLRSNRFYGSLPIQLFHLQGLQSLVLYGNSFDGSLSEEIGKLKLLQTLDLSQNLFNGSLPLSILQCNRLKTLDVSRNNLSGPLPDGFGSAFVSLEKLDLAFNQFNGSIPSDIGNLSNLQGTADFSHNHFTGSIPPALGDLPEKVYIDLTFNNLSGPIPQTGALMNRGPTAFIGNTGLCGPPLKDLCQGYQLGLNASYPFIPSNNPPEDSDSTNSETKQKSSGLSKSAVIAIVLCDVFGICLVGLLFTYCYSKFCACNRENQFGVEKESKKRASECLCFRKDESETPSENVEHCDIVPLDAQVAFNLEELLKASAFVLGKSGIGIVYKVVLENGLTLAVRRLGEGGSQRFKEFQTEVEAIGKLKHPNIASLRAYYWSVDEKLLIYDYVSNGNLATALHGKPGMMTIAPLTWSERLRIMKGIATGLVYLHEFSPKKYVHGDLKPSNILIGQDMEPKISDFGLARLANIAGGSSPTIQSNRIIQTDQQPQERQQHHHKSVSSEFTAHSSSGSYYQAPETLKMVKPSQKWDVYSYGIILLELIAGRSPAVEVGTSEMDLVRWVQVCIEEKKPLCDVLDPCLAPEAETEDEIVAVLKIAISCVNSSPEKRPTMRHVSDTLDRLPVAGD
Described as above.

Assay [2] has as its target T4, FLAG-ZAR1 (protoplasts) (Arabidopsis) (UniProt Q9ZU46).
T4 sequence: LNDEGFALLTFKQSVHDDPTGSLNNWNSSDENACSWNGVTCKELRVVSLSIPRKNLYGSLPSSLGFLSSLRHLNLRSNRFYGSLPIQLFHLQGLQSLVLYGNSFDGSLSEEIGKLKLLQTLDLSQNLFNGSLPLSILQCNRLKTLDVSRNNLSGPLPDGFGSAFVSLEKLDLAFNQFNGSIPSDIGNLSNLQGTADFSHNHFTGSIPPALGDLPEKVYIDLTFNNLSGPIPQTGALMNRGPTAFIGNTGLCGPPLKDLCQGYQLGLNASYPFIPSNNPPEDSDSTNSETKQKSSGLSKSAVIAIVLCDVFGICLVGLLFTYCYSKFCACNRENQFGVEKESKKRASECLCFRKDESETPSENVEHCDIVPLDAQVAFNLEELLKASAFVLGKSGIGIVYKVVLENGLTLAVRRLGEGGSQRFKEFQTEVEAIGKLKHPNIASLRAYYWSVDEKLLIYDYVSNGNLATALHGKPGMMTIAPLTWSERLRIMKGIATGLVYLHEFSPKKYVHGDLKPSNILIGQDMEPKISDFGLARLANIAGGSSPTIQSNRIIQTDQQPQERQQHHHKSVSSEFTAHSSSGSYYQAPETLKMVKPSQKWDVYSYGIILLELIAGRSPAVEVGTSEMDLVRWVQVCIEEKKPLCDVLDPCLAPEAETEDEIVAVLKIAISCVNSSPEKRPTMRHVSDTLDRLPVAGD
Nature of the assay: co-IP; FLAG-tagged ZAR1 or variants co-expressed with HA-tagged AGB1 in Arabidopsis leaf protoplasts; membrane fraction in 1% Triton X-100; anti-FLAG-M2 gel, 4°C, 1 hr; Western blot.

In assay [3] the target is T5, FLAG-ZAR^K534>A (Arabidopsis) (UniProt Q9ZU46).
T5 sequence: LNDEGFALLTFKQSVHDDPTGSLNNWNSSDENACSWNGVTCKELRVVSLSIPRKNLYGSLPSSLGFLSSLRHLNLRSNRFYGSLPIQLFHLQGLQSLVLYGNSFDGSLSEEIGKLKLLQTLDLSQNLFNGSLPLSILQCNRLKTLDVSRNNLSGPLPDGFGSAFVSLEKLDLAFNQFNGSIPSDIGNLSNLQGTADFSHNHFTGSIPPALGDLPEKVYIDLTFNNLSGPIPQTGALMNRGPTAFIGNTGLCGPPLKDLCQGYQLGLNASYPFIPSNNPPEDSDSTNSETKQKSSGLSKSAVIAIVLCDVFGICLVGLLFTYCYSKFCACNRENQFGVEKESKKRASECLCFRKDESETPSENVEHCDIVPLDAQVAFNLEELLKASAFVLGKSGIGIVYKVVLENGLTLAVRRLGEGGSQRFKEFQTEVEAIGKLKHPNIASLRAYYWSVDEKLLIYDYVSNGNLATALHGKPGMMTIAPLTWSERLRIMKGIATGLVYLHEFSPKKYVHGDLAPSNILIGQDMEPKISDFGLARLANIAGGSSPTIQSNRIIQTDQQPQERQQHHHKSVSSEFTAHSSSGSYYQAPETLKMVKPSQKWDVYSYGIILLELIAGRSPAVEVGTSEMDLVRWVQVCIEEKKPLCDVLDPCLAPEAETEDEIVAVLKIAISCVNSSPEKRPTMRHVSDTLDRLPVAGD
The assay is described as above.

In the next assay the target is GST-CaM1 (Arabidopsis) (UniProt P0DH95). Nature of the assay: pull-down; His-tagged ZAR1 intracellular domain co-incubated with GST-CaM1 and MBP-AGB1 together; pulled down by GST-CaM1 or by MBP-AGB1.
The target of the next assay is HA-CaM1 (Arabidopsis) (UniProt P0DH95). Put plainly: co-IP; FLAG-tagged ZAR1 or variants co-expressed with HA-tagged CaM1 in Arabidopsis leaf protoplasts; precipitated with anti-HA antibody.

No constants are given. Whether binding was seen depends on the method and setting. In cells and extracts the contact can be indirect. Some entries that bind do so weakly or less than the wild type. Sequences can lack the tags named with a protein.

Regarding GST-CaM1 (from UniProt P0DH95 1-149), in the assay with MBP-AGB1 (Arabidopsis), the binding result is listed as “binds”. Turning to “CaM1 (endogenous) (from UniProt P0DH95 1-149)”, the binding result with EGFP-LTi6b is “no binding”; in assay [1] it was “binds”.

B1: HA-AGB1 (protein, UniProt P49177 1-377)
chain: MSVSELKERHAVATETVNNLRDQLRQRRLQLLDTDVARYSAAQGRTRVSFGATDLVCCRTLQGHTGKVYSLDWTPERNRIVSASQDGRLIVWNALTSQKTHAIKLPCAWVMTCAFSPNGQSVACGGLDSVCSIFSLSSTADKDGTVPVSRMLTGHRGYVSCCQYVPNEDAHLITSSGDQTCILWDVTTGLKTSVFGGEFQSGHTADVLSVSISGSNPNWFISGSCDSTARLWDTRAASRAVRTFHGHEGDVNTVKFFPDGYRFGTGSDDGTCRLYDIRTGHQLQVYQPHGDGENGPVTSIAFSVSGRLLFAGYASNNTCYVWDTLLGEVVLDLGLQQDSHRNRISCLGLSADGSALCTGSWDSNLKIWAFGGHRRVI
For the molecule B1, the binding result in assay [2] and in assay [3] was “binds” in each case.

B2: AGB1 (endogenous) (protein, UniProt P49177 1-377)
chain: MSVSELKERHAVATETVNNLRDQLRQRRLQLLDTDVARYSAAQGRTRVSFGATDLVCCRTLQGHTGKVYSLDWTPERNRIVSASQDGRLIVWNALTSQKTHAIKLPCAWVMTCAFSPNGQSVACGGLDSVCSIFSLSSTADKDGTVPVSRMLTGHRGYVSCCQYVPNEDAHLITSSGDQTCILWDVTTGLKTSVFGGEFQSGHTADVLSVSISGSNPNWFISGSCDSTARLWDTRAASRAVRTFHGHEGDVNTVKFFPDGYRFGTGSDDGTCRLYDIRTGHQLQVYQPHGDGENGPVTSIAFSVSGRLLFAGYASNNTCYVWDTLLGEVVLDLGLQQDSHRNRISCLGLSADGSALCTGSWDSNLKIWAFGGHRRVI
As for B2, the figures for the binding result (with EGFP-LTi6b; in assay [1]) were “no binding” and “binds”, respectively.

B3: MBP-AGB1 (protein, UniProt P49177 1-377)
chain: MSVSELKERHAVATETVNNLRDQLRQRRLQLLDTDVARYSAAQGRTRVSFGATDLVCCRTLQGHTGKVYSLDWTPERNRIVSASQDGRLIVWNALTSQKTHAIKLPCAWVMTCAFSPNGQSVACGGLDSVCSIFSLSSTADKDGTVPVSRMLTGHRGYVSCCQYVPNEDAHLITSSGDQTCILWDVTTGLKTSVFGGEFQSGHTADVLSVSISGSNPNWFISGSCDSTARLWDTRAASRAVRTFHGHEGDVNTVKFFPDGYRFGTGSDDGTCRLYDIRTGHQLQVYQPHGDGENGPVTSIAFSVSGRLLFAGYASNNTCYVWDTLLGEVVLDLGLQQDSHRNRISCLGLSADGSALCTGSWDSNLKIWAFGGHRRVI
As for B3, in the assay with GST-CaM1 (Arabidopsis), the binding entry is “binds”.

B4: FLAG-ZAR1 (protoplasts) (receptor, UniProt Q9ZU46 21-716)
chain: LNDEGFALLTFKQSVHDDPTGSLNNWNSSDENACSWNGVTCKELRVVSLSIPRKNLYGSLPSSLGFLSSLRHLNLRSNRFYGSLPIQLFHLQGLQSLVLYGNSFDGSLSEEIGKLKLLQTLDLSQNLFNGSLPLSILQCNRLKTLDVSRNNLSGPLPDGFGSAFVSLEKLDLAFNQFNGSIPSDIGNLSNLQGTADFSHNHFTGSIPPALGDLPEKVYIDLTFNNLSGPIPQTGALMNRGPTAFIGNTGLCGPPLKDLCQGYQLGLNASYPFIPSNNPPEDSDSTNSETKQKSSGLSKSAVIAIVLCDVFGICLVGLLFTYCYSKFCACNRENQFGVEKESKKRASECLCFRKDESETPSENVEHCDIVPLDAQVAFNLEELLKASAFVLGKSGIGIVYKVVLENGLTLAVRRLGEGGSQRFKEFQTEVEAIGKLKHPNIASLRAYYWSVDEKLLIYDYVSNGNLATALHGKPGMMTIAPLTWSERLRIMKGIATGLVYLHEFSPKKYVHGDLKPSNILIGQDMEPKISDFGLARLANIAGGSSPTIQSNRIIQTDQQPQERQQHHHKSVSSEFTAHSSSGSYYQAPETLKMVKPSQKWDVYSYGIILLELIAGRSPAVEVGTSEMDLVRWVQVCIEEKKPLCDVLDPCLAPEAETEDEIVAVLKIAISCVNSSPEKRPTMRHVSDTLDRLPVAGD
On to B4, for which the binding result with HA-CaM1 (Arabidopsis) is on record as “binds”.

B5: FLAG-ZAR^K534>A (receptor, UniProt Q9ZU46 21-716)
chain: LNDEGFALLTFKQSVHDDPTGSLNNWNSSDENACSWNGVTCKELRVVSLSIPRKNLYGSLPSSLGFLSSLRHLNLRSNRFYGSLPIQLFHLQGLQSLVLYGNSFDGSLSEEIGKLKLLQTLDLSQNLFNGSLPLSILQCNRLKTLDVSRNNLSGPLPDGFGSAFVSLEKLDLAFNQFNGSIPSDIGNLSNLQGTADFSHNHFTGSIPPALGDLPEKVYIDLTFNNLSGPIPQTGALMNRGPTAFIGNTGLCGPPLKDLCQGYQLGLNASYPFIPSNNPPEDSDSTNSETKQKSSGLSKSAVIAIVLCDVFGICLVGLLFTYCYSKFCACNRENQFGVEKESKKRASECLCFRKDESETPSENVEHCDIVPLDAQVAFNLEELLKASAFVLGKSGIGIVYKVVLENGLTLAVRRLGEGGSQRFKEFQTEVEAIGKLKHPNIASLRAYYWSVDEKLLIYDYVSNGNLATALHGKPGMMTIAPLTWSERLRIMKGIATGLVYLHEFSPKKYVHGDLAPSNILIGQDMEPKISDFGLARLANIAGGSSPTIQSNRIIQTDQQPQERQQHHHKSVSSEFTAHSSSGSYYQAPETLKMVKPSQKWDVYSYGIILLELIAGRSPAVEVGTSEMDLVRWVQVCIEEKKPLCDVLDPCLAPEAETEDEIVAVLKIAISCVNSSPEKRPTMRHVSDTLDRLPVAGD
With B5, in the assay with HA-CaM1 (Arabidopsis), the binding entry was “binds”.
